Reference: paper PMC9352346
Substitutions are numbered along the chain they refer to. No constants are given. Whether binding was seen depends on the method and setting. In cells and extracts the contact can be indirect. Some entries that bind do so weakly or less than the wild type. For part of these data: Tags and fused reporters may be left off the sequences shown.

Sequences of proteins named here, by UniProt entry; tags and fusion partners are left off. A change or cut given only in a name is not applied to a line headed by its entry. A line that says so, or that is headed by a name, gives the form on record, which may keep a tag or linker. Residues count along the entry.
UniProt Q13485: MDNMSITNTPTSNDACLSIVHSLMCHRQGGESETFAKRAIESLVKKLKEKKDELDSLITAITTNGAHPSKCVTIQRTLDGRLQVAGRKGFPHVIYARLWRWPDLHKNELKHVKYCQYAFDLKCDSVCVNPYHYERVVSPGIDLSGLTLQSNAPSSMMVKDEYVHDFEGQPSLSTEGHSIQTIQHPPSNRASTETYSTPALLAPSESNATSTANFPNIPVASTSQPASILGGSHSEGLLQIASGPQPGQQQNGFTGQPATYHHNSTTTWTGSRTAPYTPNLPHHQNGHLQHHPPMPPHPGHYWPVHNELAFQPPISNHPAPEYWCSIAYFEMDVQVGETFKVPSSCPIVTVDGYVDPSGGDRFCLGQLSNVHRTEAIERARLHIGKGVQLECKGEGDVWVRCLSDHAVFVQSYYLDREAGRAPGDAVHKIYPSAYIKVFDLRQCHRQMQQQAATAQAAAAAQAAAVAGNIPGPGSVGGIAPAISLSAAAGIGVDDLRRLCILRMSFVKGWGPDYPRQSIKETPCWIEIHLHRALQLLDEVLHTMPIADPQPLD
GST-Smad4-MH1: residues 18-142 of Q13485
UniProt Q15796: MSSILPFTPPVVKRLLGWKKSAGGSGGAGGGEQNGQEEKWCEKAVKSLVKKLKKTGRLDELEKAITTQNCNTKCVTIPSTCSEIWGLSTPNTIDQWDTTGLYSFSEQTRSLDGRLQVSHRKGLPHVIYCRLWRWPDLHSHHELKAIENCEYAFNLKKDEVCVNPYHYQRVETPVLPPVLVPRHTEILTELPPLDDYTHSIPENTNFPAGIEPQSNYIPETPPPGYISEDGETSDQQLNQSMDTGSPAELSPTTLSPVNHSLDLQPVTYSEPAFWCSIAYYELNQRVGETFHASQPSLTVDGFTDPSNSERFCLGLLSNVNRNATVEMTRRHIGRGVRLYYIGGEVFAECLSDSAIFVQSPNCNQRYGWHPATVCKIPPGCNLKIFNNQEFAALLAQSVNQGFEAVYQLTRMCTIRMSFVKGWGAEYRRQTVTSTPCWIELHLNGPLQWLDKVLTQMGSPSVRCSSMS
GFP-Smad2-SA (Q15796, form named): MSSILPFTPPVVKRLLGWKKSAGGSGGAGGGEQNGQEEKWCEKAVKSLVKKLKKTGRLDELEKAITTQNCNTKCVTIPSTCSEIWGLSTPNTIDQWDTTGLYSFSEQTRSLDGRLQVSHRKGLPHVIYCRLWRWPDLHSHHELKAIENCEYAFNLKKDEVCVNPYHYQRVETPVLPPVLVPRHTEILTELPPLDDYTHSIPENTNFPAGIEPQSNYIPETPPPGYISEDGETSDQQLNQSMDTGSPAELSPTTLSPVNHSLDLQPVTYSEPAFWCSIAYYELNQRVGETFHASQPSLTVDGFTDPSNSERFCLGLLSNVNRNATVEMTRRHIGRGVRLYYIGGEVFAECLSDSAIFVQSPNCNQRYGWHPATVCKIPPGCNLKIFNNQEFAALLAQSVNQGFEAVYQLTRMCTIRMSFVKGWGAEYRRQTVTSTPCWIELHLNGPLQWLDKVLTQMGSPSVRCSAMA
GFP-Smad2-SE (Q15796, form named): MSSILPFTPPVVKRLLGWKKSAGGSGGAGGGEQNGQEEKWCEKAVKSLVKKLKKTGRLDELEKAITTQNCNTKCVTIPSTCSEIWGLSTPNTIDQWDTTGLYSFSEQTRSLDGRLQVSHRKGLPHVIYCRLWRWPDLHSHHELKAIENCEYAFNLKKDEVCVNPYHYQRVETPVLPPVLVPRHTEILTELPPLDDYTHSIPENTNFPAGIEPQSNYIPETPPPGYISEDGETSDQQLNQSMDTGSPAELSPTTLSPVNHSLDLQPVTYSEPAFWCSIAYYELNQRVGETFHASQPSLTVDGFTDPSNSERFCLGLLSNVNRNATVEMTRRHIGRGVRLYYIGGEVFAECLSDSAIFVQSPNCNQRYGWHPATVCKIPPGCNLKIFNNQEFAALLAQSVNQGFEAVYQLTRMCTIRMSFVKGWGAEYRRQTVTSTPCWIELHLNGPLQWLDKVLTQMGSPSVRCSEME

Columns and labels:
GST-Arl15-AL (human) [1] = target: T1, GST-Arl15-AL (human) (UniProt Q9NXU5); assay: pull-down; bead-immobilized GST-Arl15-AL incubated with HEK293T cell lysates expressing tagged Smads (with or without co-expressed Smad4); 4-14 hr at 4 °C; only the target purified
T1 sequence: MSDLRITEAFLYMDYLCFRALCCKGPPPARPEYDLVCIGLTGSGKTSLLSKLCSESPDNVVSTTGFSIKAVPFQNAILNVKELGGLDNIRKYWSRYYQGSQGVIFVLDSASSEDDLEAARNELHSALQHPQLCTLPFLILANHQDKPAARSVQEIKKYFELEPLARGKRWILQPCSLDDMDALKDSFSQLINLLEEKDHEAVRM

GST-Smad4 = GST-Smad4 (UniProt Q13485); assay: pull-down; bead-immobilized GST-Smad4 incubated with HEK293T cell lysates expressing GFP-Smad2 or GFP-Smad1 (WT, SA or SE) with or without overexpressed Arl15-AL; only the target purified
GST-Smad4-MH1 = GST-Smad4-MH1 (UniProt Q13485); assay: pull-down; bead-immobilized GST-Smad4-MH1 incubated with HEK293T cell lysates expressing HA-Smad4-MH2 with or without co-expressed Arl15-AL or TN; immunoblotted against HA or Myc-tag; only the target purified
Arl15-AL-GFP (human) [2] = target: T2, Arl15-AL-GFP (human) (UniProt Q9NXU5); assay: co-IP; HEK293T cell lysates co-expressing GFP- and Myc-tagged proteins incubated with anti-GFP antibody, captured on protein A/G beads; with or without overexpressed Arl15-AL (Figure 4f)
T2 sequence: T1 sequence

GFP-Smad2-SA = GFP-Smad2-SA (UniProt Q15796); assay: as above
GFP-Smad2-SE = GFP-Smad2-SE (UniProt Q15796); assay: as above
GST-Arl15-TN (human) = target: T3, GST-Arl15-TN (human) (UniProt Q9NXU5); assay: pull-down; bead-immobilized GST-Arl15 (AL or TN) incubated with HEK293T cell lysate (normal culture condition); immunoblotted against endogenous Smads; only the target purified
T3 sequence: T1 sequence with T46N, L86A

Arl15-AL-GFP (human) [3] = target: T2, Arl15-AL-GFP (human); assay: co-IP; HEK293T cell lysates transiently expressing C-terminally GFP-tagged small G proteins incubated with GFP-Trap beads; immunoblotted against Smad4 and GFP
Arl15-TN-GFP (human) = target: T4, Arl15-TN-GFP (human) (UniProt Q9NXU5); assay: as above
T4 sequence: T1 sequence with T46N, L86A

Arl5b-Q70L-GFP (human) = target: T5, Arl5b-Q70L-GFP (human) (UniProt Q96KC2); assay: as above
T5 sequence: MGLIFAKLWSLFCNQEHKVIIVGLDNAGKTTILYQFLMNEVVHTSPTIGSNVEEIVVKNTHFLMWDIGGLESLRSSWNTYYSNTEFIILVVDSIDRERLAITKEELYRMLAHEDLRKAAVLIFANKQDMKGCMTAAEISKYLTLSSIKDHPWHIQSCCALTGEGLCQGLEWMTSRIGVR

Arl5b-T30N-GFP (human) = target: T6, Arl5b-T30N-GFP (human) (UniProt Q96KC2); assay: as above
T6 sequence: T5 sequence with T30N, L70Q

GST-Arl15-AL (human) [4] = target: T1, GST-Arl15-AL (human); assay: pull-down; bead-immobilized GST-Arl15 (AL or TN) incubated with HEK293T cell lysate (normal culture condition); immunoblotted against endogenous Smads; only the target purified

GFP-Smad2-SA (from UniProt Q15796 1-467)
binding (GST-Arl15-AL (human) [1]): no binding
binding (GST-Smad4): no binding

GFP-Smad2-SE (from UniProt Q15796 1-467)
binding (GST-Smad4): binds

GFP-Smad4 D493H (from UniProt Q13485 1-552)
binding (GST-Arl15-AL (human) [1]): binds

GFP-Smad4 L495P (from UniProt Q13485 1-552)
binding (GST-Arl15-AL (human) [1]): binds

GFP-Smad4 M447K (from UniProt Q13485 1-552)
binding (GST-Arl15-AL (human) [1]): binds

GFP-Smad4 R496H (from UniProt Q13485 1-552)
binding (GST-Arl15-AL (human) [1]): binds

GFP-Smad4 R497H (from UniProt Q13485 1-552)
binding (GST-Arl15-AL (human) [1]): binds

GFP-Smad4-WT (from UniProt Q13485 1-552)
binding (GST-Arl15-AL (human) [1]): binds

HA-Smad4-MH2 (from UniProt Q13485 323-552) (domain or fragment)
binding (GST-Smad4-MH1): binds

Myc-Smad4 (from UniProt Q13485 1-552)
binding (GST-Arl15-AL (human) [1]): binds
binding (Arl15-AL-GFP (human) [2]): binds
binding (GFP-Smad2-SA): no binding
binding (GFP-Smad2-SE): binds

endogenous Smad2 (from UniProt Q15796 1-467)
binding (GST-Arl15-TN (human)): no binding

endogenous Smad4 (from UniProt Q13485 1-552)
binding (Arl15-AL-GFP (human) [3]): binds
binding (Arl15-TN-GFP (human)): no binding
binding (Arl5b-Q70L-GFP (human)): no binding
binding (Arl5b-T30N-GFP (human)): no binding
binding (GST-Arl15-AL (human) [4]): binds
binding (GST-Arl15-TN (human)): no binding
